# Data taken from publication PMC12136788.
# The other results are listed elsewhere or left out.
# T1: UNK ZnF1-3 (human, UniProt Q9C0B0 31-174)
# T1 sequence: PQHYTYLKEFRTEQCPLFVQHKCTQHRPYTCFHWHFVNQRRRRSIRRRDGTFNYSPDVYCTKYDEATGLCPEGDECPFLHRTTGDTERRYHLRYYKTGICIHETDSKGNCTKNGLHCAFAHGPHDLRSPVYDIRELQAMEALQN
# B1: chr13:28239862:28239863:+_ENSG00000186184_ENST00000399697|hu_hu|motif|central (ssRNA)
# RNA: GGGAGUUCUACAGUCCGACGAUCCUCUUUAUGAGAGGGCAAUGUGUUUUUAAUUGUGUUAAUUAGAAAUCUUUUAUUGGUGCGGGCAAGAGGACACUUCAUCCAACCCAUGGGUCCCAUUGUUUCAGCUCUAGUUUUCCCACGCAACAGAGGAUUGAGCAUCA
# B2: chr7:141441981:141441982:+_ENSG00000106028_ENST00000265304|hu_mus|hu_hu_hu_mus_False|88_88 (ssRNA)
# RNA: GGGAGUUCUACAGUCCGACGAUCCUCAUGUCUUACAAACUGACGAAGUACCUGUAACACAGGUCUUCGAAACAUGGCUUCUGUUUUUCUUACAACCUAAUCUUUAGGCUUUUCCUAAAGGAAAGAAAGAAAAGAGAAAAAUGACAACAGAGGAUUGAGCAUCA
# B3: chr7:37554838:37554839:+_ENSMUSG00000021217_ENSMUST00000021641|mus_mus|FALSE|FALSE (ssRNA)
# RNA: GGGAGUUCUACAGUCCGACGAUCGACCGGUGUCUCCAUGAUGGGCUUCCCCUUCUUCAUGGCCGAGUUUGUGACCUUGAUAAAGUGGCCAGUGACCAUCAUGUGAGCUGUGAGCUCCUGGAGCGUGUCAUGGGAGCUUCCACACAACAGAGGAUUGAGCAUCA
# B4: chr2:202488911:202488912:-_ENSG00000155755_ENST00000286196|hu_mus|hu_hu_hu_mus_False|48_48 (ssRNA)
# RNA: GGGAGUUCUACAGUCCGACGAUCAUUGAAACAUUUUUCAUAAUCUCCAGUAGCAUUUCAGCAUUAUGUAACAAAAGCUCAAUUGUAAAUACACAUGUCUUAUAAAAAUACACUUAAAAACACGAGUGGGGAGCGCAGGCGCCACAACAGAGGAUUGAGCAUCA
# B5: chr2:103900078:103900079:+_ENSMUSG00000027180_ENSMUST00000028603|mus_mus|motif|central (ssRNA)
# RNA: GGGAGUUCUACAGUCCGACGAUCGAAGUCUGGUCUGGUGUAGGCAUGGUGCACACAUCUAGCACUUGGGAGGCAAUCGAGCGGUAGACACCCUGAAUGUUGGACAUGCCAUGUGGAAUCGGGGGAUGGCAACAUUAAAGACCUCAACAGAGGAUUGAGCAUCA
# B6: chr11:115359187:115359188:-_ENSMUSG00000020737_ENSMUST00000021083|mus_mus|FALSE|FALSE (ssRNA)
# RNA: GGGAGUUCUACAGUCCGACGAUCGUACAUAAGAGUCUCUACACAUCAGGAACCAGAUCAUCUGUUCUUAGAAACAGUCUACUACUCCAGUCUACUACUAGAAAACACUCAUGCCAUGGCGCACAGACCCAGGAGUCAGACAGACAACAGAGGAUUGAGCAUCA
# B7: chr16:94664741:94664742:+_ENSMUSG00000040785_ENSMUST00000117648|mus_hu|mus_mus_mus_hu_False|18_38 (ssRNA)
# RNA: GGGAGUUCUACAGUCCGACGAUCUGGUACUGAUCUUGGUAGCUGAUAUUCAGGAGAAAGGCUGGCCAAGGGUGUAUAUAUGCUGGUGUACUGGGGCAGGCUAGGUAACACGUUUAUGUACGCUGGUGGUGUCUGGGUGAUAUCCAACAGAGGAUUGAGCAUCA
# B8: chrX:21990627:21990628:+_ENSG00000102172_ENST00000404933|hu_hu|FALSE|FALSE (ssRNA)
# RNA: GGGAGUUCUACAGUCCGACGAUCCACCCGCCCAGUACUGUCCUGACUCAAUUCUUUCAUUCUUUCCUCUACUUUGUUCAAAAUACUGUCGAUCUCUUCUUUGCCUUGCGCAUCACCAUCAUAACUCUGAAGGUCCAGCAACACCAACAGAGGAUUGAGCAUCA
# B9: chr7:141441981:141441982:+_ENSG00000106028_ENST00000265304|hu_mus|hu_hu_hu_mus_False|28_38 (ssRNA)
# RNA: GGGAGUUCUACAGUCCGACGAUCCUCAUGUCUUACAAACUGACGAAAUACCUGUAACACAGGUCUUCGAAACAUGGCUUCUGUUUUUCUUACAACCAGUCUAAUCUUUAGGCUUUUAAGGAAAGAAAGAAAAGAGAAAAAUGACAACAGAGGAUUGAGCAUCA
# B10: chrX:140365796:140365797:-_ENSMUSG00000031285_ENSMUST00000033642|mus_mus|mus_mus_mus_hu_False|28_48 (ssRNA)
# RNA: GGGAGUUCUACAGUCCGACGAUCCUUCUCAUUACUCAGUGCCUGCAAGGUUCUGGUUCGGUAGAAGCUACAGUGGGCGCUGUGAGUGGGACUUGGAAACCCAUUCAUCCGUGACCCUCGCAUGUUCCUGGAUGUCUUAUCUCUCAACAGAGGAUUGAGCAUCA
# B11: chr16:70566459:70566460:+_ENSG00000189091_ENST00000302516|hu_mus|FALSE|FALSE (ssRNA)
# RNA: GGGAGUUCUACAGUCCGACGAUCAAGGAAGUUGCCAUGUUCCUCCAAGGGUUCACUGUAUUUCCGAACCACAUGAUUUAAGCCAAGGUCCAGUUCAUAGAAAGUAAGUGUCUGCUGGGUAUUGGCUGCUGCUUCCCCUGUUGGCAACAGAGGAUUGAGCAUCA
# B12: 124027937_124028057_2223_ncRNA_ENSMUSG00000049550_ENSMUST00000125340|mouse|control|control (ssRNA)
# RNA: GGGAGUUCUACAGUCCGACGAUCCUCACUCAUCAAGCACAGUGGAUAACCUUAAGGGGAGACGGGGCAGAGGCCUAUAUACAAUGACGGAAGUUCUCGUCCUGCACACUGCGUGGAGGUGCAUGUGGCUCCUUUUUACAUAUUCAACAGAGGAUUGAGCAUCA
# B13: chr7:102950833:102950834:+_ENSG00000105819_ENST00000453466|hu_hu|motif|central (ssRNA)
# RNA: GGGAGUUCUACAGUCCGACGAUCACCAUAUACAGUCCCCAUAAUCCUGUAUCUGUGUAGGAAGUGUUGAAAGACUGAAAGCGGUGGCAAAGAUUGCCAUGACAAGUGAGCUGGGCCAGCUUGCUAGAUAAAUUCAUUCCUCCCCAACAGAGGAUUGAGCAUCA
# B14: chr22:32879901:32879902:+_ENSG00000100225_ENST00000397426|hu_mus|hu_hu_hu_mus_False|38_48 (ssRNA)
# RNA: GGGAGUUCUACAGUCCGACGAUCCUCUUCCAUACUCAUGGCAUCCUGAAUUGACUCAGCUUCAACAUUUUGACUAGGCCCUUCCAUACUGUCGUCAUUCCAAACACCAAAUGGGGUGGCCUGUCCUUGGGAUGAAUCAGUCCCCAACAGAGGAUUGAGCAUCA
# B15: chr17:23961646:23961647:+_ENSMUSG00000039218_ENSMUST00000088621|mus_hu|FALSE|FALSE (ssRNA)
# RNA: GGGAGUUCUACAGUCCGACGAUCGCAUUUCUCAUUUUUAUUUGACAGAAAAAGUUGCUCUUGCUGUACAGAUUUUAAAAAACCAAAAUGCCUUUAAGAAACAUGAAAAGUUGGGGGGAGGGGUUCACAACCUCAUGGGGGACACAACAGAGGAUUGAGCAUCA
# B16: chr1:46159212:46159213:+_ENSG00000159596_ENST00000372025|hu_mus|hu_hu_hu_mus_True|8_38 (ssRNA)
# RNA: GGGAGUUCUACAGUCCGACGAUCUCUGAUCCCUCCCAAGAAAGCUAGGAAACCGGCUCCAUAAGCCAUCUGAGUGAAAGCUAGGACGGGGAUAUAAGUUUUUGUCAUUACCAUGAGAAGUGGGGGAGCAACGAAGGGGAUUAACAACAGAGGAUUGAGCAUCA
# B17: chr20:21312971:21312972:+_ENSG00000088930_ENST00000377191|hu_hu|motif|central (ssRNA)
# RNA: GGGAGUUCUACAGUCCGACGAUCUCCAAACUGAUUACAAAGACCACAUGGUUUGGGCUUGUUUGGUUUGAAUUCUUCUCGGAUAAUGGUAAAGUUCGGUUCAUGUGUGGCAAGGCCAAGCAUAAUGAGAUCAGCAUCUGCUCCCAACAGAGGAUUGAGCAUCA
# B18: chr19:8913615:8913616:-_ENSMUSG00000071658_ENSMUST00000096259|mus_hu|mus_mus_mus_hu_False|28_58 (ssRNA)
# RNA: GGGAGUUCUACAGUCCGACGAUCAGGGUACCAAAACCUUCUGCCUGAAAUGGGUGCCCCACCCAGUAGGGAGUUGCAGCUAAAAAUAUCUGAUGCAGAAGCAGUGAAUGCAGAGAAGGAGGCCCCUGGGGAGGGCCAGGCCAGCAACAGAGGAUUGAGCAUCA
# B19: chr9:100896081:100896082:-_ENSMUSG00000032527_ENSMUST00000035116|mus_mus|FALSE|FALSE (ssRNA)
# RNA: GGGAGUUCUACAGUCCGACGAUCGAAAUUGAAGAAUUCACGCAGGUUACACAGAGCAUCAACAUCAUUGUCGAAAGCUCUAUGGGCCACACCUGACACAGUGGUGUGGGUCUUGGCACCACCCAGCUGCUCUUGAGUGACAUCCAACAGAGGAUUGAGCAUCA
# B20: chr8:97244095:97244096:-_ENSG00000156467_ENST00000518406|hu_mus|FALSE|FALSE (ssRNA)
# RNA: GGGAGUUCUACAGUCCGACGAUCGCAGGCAUGGCCUGAUGCCUCAUGGUCAGGUCUUAACGCAACACUCUGUUGCCUCAAAGUCCUCAGGAAGCCUUCUUAUGACUUCUUUCACACUUCAGUCUCCUAUGCUGUGCCAUCUCACAACAGAGGAUUGAGCAUCA
# B21: chr9:95050471:95050472:-_ENSG00000196305_ENST00000443024|hu_mus|FALSE|FALSE (ssRNA)
# RNA: GGGAGUUCUACAGUCCGACGAUCGUCCCACCCGAAUCUUCUGUCAACGUGAAACCCGCUCUGGUGAGCGUAUCUCGUAACGAUAUCUUUGAUUGUCCCAGCAAGUAUGUGUCCAUAGUGAGGCAGUCCAGUAGCAAAGGGAGGCAACAGAGGAUUGAGCAUCA
# B22: 41527489_41527609_2659_CDS_ENSG00000100393_ENST00000263253|human|control|control (ssRNA)
# RNA: GGGAGUUCUACAGUCCGACGAUCGGGAGACUGCCCAGGCUGCUGAUUCUGCUGGUUCUUUGCUUGCACCUGGGGUUGUGUCGGCAUCUGAUUUACUUGAUAGGGUAGUCCAAGAGCUGCAUAGGCUCUUUCUAUGGAGCUGGGCAACAGAGGAUUGAGCAUCA
# Target: T1, UNK ZnF1-3
# Test: nsRBNS (natural sequence RNA bind-n-seq); RBNS binding buffer (assumed for nsRBNS): 25 mM Tris pH 7.5, 150 mM KCl, 3 mM MgCl2, 0.01% Triton X-100, 500 ug/ml BSA, 20 U/ml SUPERase-In, 4 C; UNK is unkempt and MSI1 is Musashi-1; names of the RNAs are library labels; protein concentration not given here; high values mean tight binding
row,Binder,binding signal
1,B1,0.871 enrichment R
2,B2,0.576 enrichment R
3,B3,0.614 enrichment R
4,B4,0.977 enrichment R
5,B5,1.21 enrichment R
6,B6,1.2 enrichment R
7,B7,1.14 enrichment R
8,B8,0.997 enrichment R
9,B9,0.726 enrichment R
10,B10,0.595 enrichment R
11,B11,0.76 enrichment R
12,B12,1.32 enrichment R
13,B13,1.22 enrichment R
14,B14,0.844 enrichment R
15,B15,1.45 enrichment R
16,B16,1.4 enrichment R
17,B17,0.787 enrichment R
18,B18,1.88 enrichment R
19,B19,1.03 enrichment R
20,B20,0.541 enrichment R
21,B21,0.998 enrichment R
22,B22,1.22 enrichment R
